The list shows a part of the results.
System: S. aureus RN4220
Assay: growth inhibition call (relative growth <= 0.2)
Settings: 50 µM

Growth inhibition call, inactive:
CO[C@H]1CN(C)C(=O)c2cc(NC(=O)C3CCOCC3)ccc2OC[C@@H](C)N(Cc2cccnc2)C[C@H]1C
Cc1noc(C)c1S(=O)(=O)Nc1ccc2c(c1)C(=O)N([C@H](C)CO)C[C@H](C)[C@@H](CN(C)Cc1ccc(C(F)(F)F)cc1)OCCCC[C@H](C)O2
c1cnc2nc[nH]c2c1
Cn1cnc(S(=O)(=O)N[C@H]2C=C[C@H](CC(=O)NCC3CC3)O[C@@H]2CO)c1
C[C@H](CO)N1C[C@H](C)[C@@H](CN(C)Cc2ccc(Cl)c(Cl)c2)Oc2ccc(NC(=O)Nc3ccc(C(F)(F)F)cc3)cc2CC1=O
Cc1ccc(S(=O)(=O)N(C)C[C@H]2Oc3ccc(NC(=O)CCCN(C)C)cc3CC(=O)N([C@H](C)CO)C[C@@H]2C)cc1
C[C@H]1CN([C@@H](C)CO)C(=O)CCCn2nncc2CO[C@H]1CN(C)S(=O)(=O)c1ccc(Oc2ccccc2)cc1
C[C@@H]1CN([C@@H](C)CO)C(=O)CCCn2nncc2CO[C@@H]1CN(C)S(=O)(=O)c1ccc(C#N)cc1
C[C@@H]1CN([C@@H](C)CO)C(=O)c2cc(NC(=O)CCCCCC(=O)Nc3ccccc3N)ccc2O[C@@H]1CN(C)C(=O)Nc1ccc(F)cc1
C[C@H](CO)N1C[C@H](C)[C@H](CN(C)C(=O)Nc2ccc(F)cc2)Oc2ccc(NC(=O)Nc3cccc4ccccc34)cc2CC1=O
COc1cccc(NC(=O)N(C)C[C@H]2Oc3ncc(C#Cc4ccncc4)cc3C(=O)N([C@@H](C)CO)C[C@@H]2C)c1
C[C@H]1CN([C@@H](C)CO)S(=O)(=O)c2ccc(C#CCN(C)C)cc2O[C@@H]1CN(C)Cc1ccccn1
C[C@H]1CCCCO[C@@H](CN(C)C(=O)Nc2cccc3ccccc23)[C@@H](C)CN([C@@H](C)CO)C(=O)c2cc(NS(=O)(=O)c3cccs3)ccc2O1
COC(=O)NN=Cc1c[n+]([O-])c2ccccc2[n+]1[O-]
C[C@@H]1CN([C@H](C)CO)C(=O)c2cc(N(C)C)ccc2O[C@H]1CN(C)S(=O)(=O)c1ccc(Cl)cc1
O=c1[nH]c(=O)n(Cc2ccccc2)c2nc[nH]c12
C[C@@H]1CN(C)S(=O)(=O)CCO1
C[N+](C)(CCOc1ccccc1)Cc1ccccc1.O=C(O)c1cc2ccccc2c(Br)c1O
C=CCOC(=O)[C@@H]1[C@H]2C(=O)O[C@H](c3ccccc3)[C@H](c3ccccc3)N2[C@H](c2ccc(OCCOC(=O)[C@@H]3C[C@@H]4C(=O)NCC(=O)N4[C@@H]3c3ccc(O)cc3)cc2)[C@@]12C(=O)Nc1ccc(I)cc12
COc1ccc(S(=O)(=O)Nc2ccc3c(c2)C(=O)N([C@H](C)CO)C[C@@H](C)[C@H](CN(C)C(=O)C2CCCCC2)OCCCC[C@@H](C)O3)cc1
C[C@@H]1CN([C@@H](C)CO)C(=O)c2cc(N(C)C)ccc2O[C@@H](C)CCCCO[C@@H]1CN(C)S(=O)(=O)c1cn(C)cn1
O=C(Nc1nccs1)[C@@H]1[C@@H](CO)[C@@H]2Cn3c(cccc3=O)[C@H]1N2C(=O)C1CC1
C[C@H]1CCCCO[C@H](CN(C)C(=O)Nc2ccccc2)[C@@H](C)CN([C@@H](C)CO)C(=O)c2cc(NC(=O)CCC(F)(F)F)ccc2O1
C[C@H]1CN([C@@H](C)CO)C(=O)c2cc(-c3ccc(C(=O)N(C)C)cc3)cnc2O[C@H]1CN(C)C(=O)C1CC1
C[C@@H]1CN([C@@H](C)CO)C(=O)c2cc(C#Cc3cccc(F)c3)cnc2O[C@@H]1CN(C)Cc1ccccn1
NCc1ccc2cc[nH]c(=O)c2c1
O=C(NO)c1ccc(-c2cn(CC(=O)N3CCOCC3)nn2)s1

From the antibiotic and cytotoxicity screens of Wong et al. (2023)
